For 16 compounds, IC50 results are on record in patent publication US7772236B2, “Substituted pyrazoles” (Ortho McNeil Pharmaceutical, Inc., priority 2000, dated 2010).

Like-named read-outs stand apart in the source and are kept apart here.

For test [1], the target named is T1, Recombinant human cathepsin S (CatS) (Homo sapiens, UniProt P25774). Nature of the test: biochemical.
Test [2] concerns the target T1, Recombinant human cathepsin S (CatS). To be noted: Table 3; 100 mM sodium acetate pH 5.0, 1 mM DTT, 100 mM NaCl; fluorescent peptide substrate.

What is called IC50 is the concentration that gives 50% inhibition. `O=[N+]([O-])c1ccccc1N1CCN(CCCn2nc(-c3ccc(Br)cc3)c3c2CCNC3)CC1` [Example 270, 3-(4-Bromo-phenyl)-1-{3-[4-(2-nitro-phenyl)-piperazin-1-yl]-propyl}-4,5,6,7-tetrahydro-1H-pyrazolo[4,3-c]pyridine]: in test [1], the concentration for half-maximal inhibition (IC50) was found to be 1800 nM.
Still for that read-out and setting: to `CS(=O)(=O)N1CCc2c(c(-c3ccc(Br)cc3)nn2CCCN2CCN(c3ccccc3[N+](=O)[O-])CC2)C1` [Example 272, 3-(4-Bromo-phenyl)-5-methanesulfonyl-1-{3-[4-(2-nitro-phenyl)-piperazin-1-yl]-propyl}-4,5,6,7-tetrahydro-1H-pyrazolo[4,3-c]pyridine] belongs 150 nM; to `CS(=O)(=O)N1CCc2c(c(-c3ccc(Br)cc3)nn2CCCN2CCN(C3=NS(=O)(=O)c4ccccc43)CC2)C1` [Example 277, 3-(4-Bromo-phenyl)-1-{3-[4-(1,1-dioxo-1H-1λ^6-benzo[d]isothiazol-3-yl)-piperazin-1-yl]-propyl}-5-methanesulfonyl-4,5,6,7-tetrahydro-1H-pyrazolo[4,3-c]pyridine], 2800 nM.
The same measure, in the same setting: to `CC(=O)N1CCc2c(c(-c3ccc(Br)cc3)nn2CCCN2CCN(c3nsc4ccccc34)CC2)C1` [Example 278, 1-[1-[3-(4-Benzo[d]isothiazol-3-yl-piperazin-1-yl)-propyl]-3-(4-bromo-phenyl)-1,4,6,7-tetrahydro-pyrazolo[4,3-c]pyridin-5-yl]-ethanone] belongs 190 nM.
On the same count and under the same terms, in the case of `Brc1ccc(-c2nn(CCCN3CCN(c4nsc5ccccc45)CC3)c3c2CNCC3)cc1` [Example 281, 1-[3-(4-Benzo[d]isothiazol-3-yl-piperazin-1-yl)-propyl]-3-(4-bromo-phenyl)-4,5,6,7-tetrahydro-1H-pyrazolo[4,3-c]pyridine] it was 2500 nM; in that of `CS(=O)(=O)N1CCc2c(c(-c3ccc(C(F)(F)F)cc3)nn2CCCN2CCN(c3c(Cl)cccc3NC(N)=O)CC2)C1` [Example 283, [3-Chloro-2-(4-{3-[5-methanesulfonyl-3-(4-trifluoromethyl-phenyl)-4,5,6,7-tetrahydro-pyrazolo[4,3-c]pyridin-1-yl]-propyl}-piperazin-1-yl)-phenyl]-urea], 80 nM.
As to `CNC(=O)Nc1cccc(Cl)c1N1CCN(CC(O)Cn2nc(-c3ccc(C(F)(F)F)cc3)c3c2CCN(S(C)(=O)=O)C3)CC1` (stereo not shown) [Example 285, 1-[3-Chloro-2-(4-{2-hydroxy-3-[5-methanesulfonyl-3-(4-trifluoromethyl-phenyl)-4,5,6,7-tetrahydro-pyrazolo[4,3-c]pyridin-1-yl]-propyl}-piperazin-1-yl)-phenyl]-3-methyl-urea], the IC50 in test [2] is 40 nM.
`Cc1cccc(C)c1N1CCN(CC(O)Cn2nc(-c3ccc(C(F)(F)F)cc3)c3c2CCN(S(C)(=O)=O)C3)CC1` (stereo not shown) [Example 287, 1-[4-(2,6-Dimethyl-phenyl)-piperazin-1-yl]-3-[5-methanesulfonyl-3-(4-trifluoromethyl-phenyl)-4,5,6,7-tetrahydro-pyrazolo[4,3-c]pyridin-1-yl]-propan-2-ol]: in test [1], the IC50 stood at 200 nM.
With `CS(=O)(=O)N1CCc2c(c(-c3ccc(C(F)(F)F)cc3)nn2CC(O)CN2CCN(c3c(C#N)cccc3C#N)CC2)C1` (stereo not shown) [Example 289, 2-(4-{2-Hydroxy-3-[5-methanesulfonyl-3-(4-trifluoromethyl-phenyl)-4,5,6,7-tetrahydro-pyrazolo[4,3-c]pyridin-1-yl]-propyl}-piperazin-1-yl)-isophthalonitrile], the IC50 in test [1] was 150 nM.
Same read-out and setting: to `COC(=O)c1cccc(Cl)c1N1CCN(CC(O)Cn2nc(-c3ccc(C(F)(F)F)cc3)c3c2CCN(S(C)(=O)=O)C3)CC1` (stereo not shown) [Example 293, 3-Chloro-2-(4-{2-hydroxy-3-[5-methanesulfonyl-3-(4-trifluoromethyl-phenyl)-4,5,6,7-tetrahydro-pyrazolo[4,3-c]pyridin-1-yl]-propyl}-piperazin-1-yl)-benzoic acid methyl ester] belongs 140 nM; to `CS(=O)(=O)N1CCc2c(c(-c3ccc(C(F)(F)F)cc3)nn2CC(O)CN2CCN(c3c(Cl)cccc3CN3CCOCC3)CC2)C1` (stereo not shown) [Example 296, 1-[4-(2-Chloro-6-morpholin-4-ylmethyl-phenyl)-piperazin-1-yl]-3-[5-methanesulfonyl-3-(4-trifluoromethyl-phenyl)-4,5,6,7-tetrahydro-pyrazolo[4,3-c]pyridin-1-yl]-propan-2-ol], 480 nM.
`COC(=O)c1cccc(NS(C)(=O)=O)c1N1CCN(CC(O)Cn2nc(-c3ccc(C(F)(F)F)cc3)c3c2CCN(S(C)(=O)=O)C3)CC1` (stereo not shown) [Example 302, 2-(4-{2-Hydroxy-3-[5-methanesulfonyl-3-(4-trifluoromethyl-phenyl)-4,5,6,7-tetrahydro-pyrazolo[4,3-c]pyridin-1-yl]-propyl}-piperazin-1-yl)-3-methanesulfonylamino-benzoic acid methyl ester]: the IC50 in test [2] came out at 70 nM.
In the case of `CC(=O)N1CCc2c(c(-c3ccc(C(F)(F)F)cc3)nn2CC(O)CN2CCN(c3c([N+](=O)[O-])cccc3[N+](=O)[O-])CC2)C1` (stereo not shown) [Example 306, 1-[1-{3-[4-(2,6-Dinitro-phenyl)-piperazin-1-yl]-2-hydroxy-propyl}-3-(4-trifluoromethyl-phenyl)-1,4,6,7-tetrahydro-pyrazolo[4,3-c]pyridin-5-yl]-ethanone], in test [1], the IC50 worked out at 340 nM.
Regarding `CC(=O)N1CCc2c(c(-c3ccc(C(F)(F)F)cc3)nn2CCCN2CCN(c3c(Cl)cncc3Cl)CC2)C1` [Example 310, 1-[1-{3-[4-(3,5-Dichloro-pyridin-4-yl)-piperazin-1-yl]-propyl}-3-(4-trifluoromethyl-phenyl)-1,4,6,7-tetrahydro-pyrazolo[4,3-c]pyridin-5-yl]-ethanone], the IC50 in test [1] was 400 nM.
The same measure, in the same setting: to `CC(=O)N1CCc2c(c(-c3ccc(Br)cc3)nn2CC(CN2CCN(c3ccccc3C#N)CC2)N=[N+]=[N-])C1` (stereo not shown) [Example 311, 2-(4-{3-[5-Acetyl-3-(4-bromo-phenyl)-4,5,6,7-tetrahydro-pyrazolo[4,3-c]pyridin-1-yl]-2-azido-propyl}-piperazin-1-yl)-benzonitrile] belongs 2100 nM.
On to `CC(=O)N1CCc2c(c(-c3ccc(C(F)(F)F)cc3)nn2CC(O)CN2CCN(c3nc4ccc([N+](=O)[O-])cc4s3)CC2)C1` (stereo not shown) [Example 312, 1-[1-{2-Hydroxy-3-[4-(6-nitro-benzothiazol-2-yl)-piperazin-1-yl]-propyl}-3-(4-trifluoromethyl-phenyl)-1,4,6,7-tetrahydro-pyrazolo[4,3-c]pyridin-5-yl]-ethanone], for which, in test [1], the IC50 is 770 nM.
